No constants are given. Whether binding was seen depends on the method and setting. Binding seen in cells or lysates may run through a third protein. Some binding calls cover weakened binding; strength is not graded here.
Assays:
[1] = biological target: Myc–RhoU(231–258) (human) (UniProt Q7L0Q8); test: co-IP; lysates of co-transfected COS7 cells, Myc-Trap agarose beads, 1 h at 4°C, 10 mM Tris-HCl pH 7.5, 150 mM NaCl, NP40; blots with anti-GFP, anti-Myc and anti-HA; in Fig. 2D cells treated with DMSO or 100 µM 2-BP for 2 h
[2] = biological target: GFP–RhoU (human) (UniProt Q7L0Q8); test: FRET or BRET; FLIM-FRET of GFP and mCherry fusions in PC3 cells on fibronectin-coated glass, fixed after 4 h
[3] = biological target: GFP–RhoU (human) (UniProt Q7L0Q8); test: FRET or BRET; FLIM-FRET of GFP and mCherry fusions in nucleofected Jurkat cells on fibronectin with 1 ng/ml CXCL12, fixed after 15 min
[4] = biological target: Myc–RhoU (human) (UniProt Q7L0Q8); test: co-IP; lysates of co-transfected COS7 cells, Myc-Trap agarose beads, 1 h at 4°C, 10 mM Tris-HCl pH 7.5, 150 mM NaCl, NP40; blots with anti-GFP, anti-Myc and anti-HA; in Fig. 2D cells treated with DMSO or 100 µM 2-BP for 2 h
[5] = biological target: GFP–RhoU (human) (UniProt Q7L0Q8); test: co-IP; lysates of co-transfected COS7 cells, GFP-Trap agarose beads, 1 h at 4°C, 10 mM Tris-HCl pH 7.5, 150 mM NaCl, NP40; blots with anti-GFP and anti-Myc
[6] = biological target: GFP–RhoU(204–258) (human) (UniProt Q7L0Q8); test: as above
[7] = biological target: GFP–RhoU(231–258) (human) (UniProt Q7L0Q8); test: as above
[8] = biological target: GFP–RhoU(C255S, C256S) (human) (UniProt Q7L0Q8); test: as above
[9] = biological target: Myc–RhoU (human) (UniProt Q7L0Q8); test: cross-linking; lysates of transfected COS7 cells in 20 mM HEPES pH 7.2, 1% Triton X-100, incubated with DSS (0.25 mM in the methods; increasing concentrations in the results) or DMSO for 30 min at 4°C; anti-Myc blot
[10] = biological target: Myc–PAK2 (UniProt Q13177); test: co-IP; lysates of co-transfected COS7 cells, Myc-Trap agarose beads, 1 h at 4°C, 10 mM Tris-HCl pH 7.5, 150 mM NaCl, NP40; blots with anti-GFP, anti-Myc and anti-HA; in Fig. 2D cells treated with DMSO or 100 µM 2-BP for 2 h

Protein sequences, listed by entry. Tags and fused reporters are not part of them. Lines headed by an entry give the natural chain unless they say otherwise; changes in a name come on top. Chains listed by the source or under a name are the forms on record and can include a tag or linker. Residues count along the entry.
UniProt Q7L0Q8: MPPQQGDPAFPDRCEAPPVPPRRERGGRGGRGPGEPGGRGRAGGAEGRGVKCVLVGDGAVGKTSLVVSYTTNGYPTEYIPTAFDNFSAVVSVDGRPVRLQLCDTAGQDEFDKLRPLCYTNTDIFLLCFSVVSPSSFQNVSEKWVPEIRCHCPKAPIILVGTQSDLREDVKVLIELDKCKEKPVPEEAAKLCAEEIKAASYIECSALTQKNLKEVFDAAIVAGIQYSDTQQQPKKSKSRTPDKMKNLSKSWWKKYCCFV
GFP–RhoU(204–258): residues 204-258 of Q7L0Q8
GFP–RhoU(231–258)mut (Q7L0Q8, form named): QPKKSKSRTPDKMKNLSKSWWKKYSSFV
UniProt Q13177: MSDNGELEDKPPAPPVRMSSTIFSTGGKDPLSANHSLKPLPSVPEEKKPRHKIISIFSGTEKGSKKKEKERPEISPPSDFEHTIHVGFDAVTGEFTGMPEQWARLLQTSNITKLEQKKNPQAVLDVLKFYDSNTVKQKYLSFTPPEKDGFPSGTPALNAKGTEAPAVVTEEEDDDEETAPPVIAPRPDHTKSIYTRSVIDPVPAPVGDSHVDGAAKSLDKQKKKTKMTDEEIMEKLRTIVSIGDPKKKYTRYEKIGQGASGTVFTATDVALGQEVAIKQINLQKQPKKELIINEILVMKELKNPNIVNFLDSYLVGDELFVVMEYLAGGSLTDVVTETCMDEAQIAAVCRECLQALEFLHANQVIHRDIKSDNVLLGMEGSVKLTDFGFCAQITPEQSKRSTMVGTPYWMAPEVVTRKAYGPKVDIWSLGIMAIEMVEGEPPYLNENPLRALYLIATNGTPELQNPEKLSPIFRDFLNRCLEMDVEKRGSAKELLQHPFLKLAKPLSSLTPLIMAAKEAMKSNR

GFP–RhoU(231–258) (from UniProt Q7L0Q8-1 231-258) (domain or fragment)
binding [1]: binds

mCherry–RhoU (from UniProt Q7L0Q8-1 1-258)
binding [2]: binds | binding [3]: binds

GFP–RhoU (from UniProt Q7L0Q8-1 1-258)
binding [4]: binds | binding [1]: binds

Myc–RhoU (from UniProt Q7L0Q8-1 1-258)
binding [5]: binds | binding [6]: binds | binding [7]: binds | binding [8]: no binding | binding [9]: binds

GFP–RhoU(Q107L) (from UniProt Q7L0Q8-1 1-258)
binding [4]: binds

HA–RhoU (from UniProt Q7L0Q8 1-258)
binding [10]: binds | binding [4]: binds

GFP–RhoU(231–258)mut (from UniProt Q7L0Q8 231-258) (domain or fragment)
binding [4]: no binding

— paper PMC10917059
